Among all 310,000 compounds or so, about 2,200 (0.71%) showed an effect of 50% or more. Effects have a minus sign here. This is one part of the list.
Target: human ether-à-go-go-related gene (hERG) potassium channel (human, UniProt Q12809)
Assay: primary screen, population patch clamp on CHO cells stably expressing hERG

Sequence of human ether-à-go-go-related gene (hERG) potassium channel (Q12809 whole entry, looked up): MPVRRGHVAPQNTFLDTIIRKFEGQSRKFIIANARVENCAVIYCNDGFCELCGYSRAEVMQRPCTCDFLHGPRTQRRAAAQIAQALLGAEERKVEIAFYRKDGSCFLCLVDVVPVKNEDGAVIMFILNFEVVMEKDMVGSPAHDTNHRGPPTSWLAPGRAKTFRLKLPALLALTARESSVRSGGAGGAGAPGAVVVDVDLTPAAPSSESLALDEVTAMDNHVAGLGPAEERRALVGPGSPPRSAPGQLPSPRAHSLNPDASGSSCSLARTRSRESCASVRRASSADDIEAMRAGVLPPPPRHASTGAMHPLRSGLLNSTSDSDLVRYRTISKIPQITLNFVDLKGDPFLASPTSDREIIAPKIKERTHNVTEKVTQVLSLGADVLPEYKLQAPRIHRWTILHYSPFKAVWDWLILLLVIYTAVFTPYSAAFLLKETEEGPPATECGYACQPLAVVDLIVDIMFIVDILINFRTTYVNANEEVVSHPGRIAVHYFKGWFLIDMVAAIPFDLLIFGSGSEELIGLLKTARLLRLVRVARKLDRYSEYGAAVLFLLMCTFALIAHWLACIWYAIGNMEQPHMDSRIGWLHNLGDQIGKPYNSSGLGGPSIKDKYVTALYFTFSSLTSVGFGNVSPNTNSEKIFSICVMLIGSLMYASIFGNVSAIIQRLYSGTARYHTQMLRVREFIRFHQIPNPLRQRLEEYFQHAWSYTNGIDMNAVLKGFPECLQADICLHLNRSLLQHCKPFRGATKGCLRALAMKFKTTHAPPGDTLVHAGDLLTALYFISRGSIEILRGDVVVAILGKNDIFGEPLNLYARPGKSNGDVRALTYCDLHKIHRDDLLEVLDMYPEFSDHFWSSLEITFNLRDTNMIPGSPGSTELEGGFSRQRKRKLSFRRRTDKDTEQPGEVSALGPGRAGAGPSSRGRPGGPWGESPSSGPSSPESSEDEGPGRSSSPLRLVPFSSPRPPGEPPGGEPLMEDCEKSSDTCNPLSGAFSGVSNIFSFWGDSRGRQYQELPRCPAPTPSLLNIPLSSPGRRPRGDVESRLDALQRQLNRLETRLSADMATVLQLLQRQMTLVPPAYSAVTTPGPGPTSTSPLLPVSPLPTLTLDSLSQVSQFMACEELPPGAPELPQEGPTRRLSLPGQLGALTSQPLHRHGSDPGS

| SMILES | hERG current change (%, negative = inhibition) at 1uM [%] |
| --- | --- |
| O=C(NCc1ccccc1)c1ccc(NC(=O)c2ccco2)cc1 | 5.4 |
| COc1ccc(C2=Nc3ccccc3OC2)cc1 | 3.04 |
| COc1ccc(-c2cnc(SCC(=O)Nc3nc(C(C)(C)C)cs3)n2Cc2ccco2)cc1 | 9.81 |
| Cc1ccc(S(=O)(=O)NCCC(=O)NCCCSc2ccccc2)cc1 | 6.16 |
| O=C(N/N=C/c1cccn1-c1ccc(O)cc1)c1cccc2ccccc12 | -6.71 |
| CC1Cn2c(nnc2-c2ccccc2O)S1 (stereo not shown) | 1.21 |
| CCN1CCN(C(=O)c2ccc3c(c2)c(C)c(C)n3Cc2ccccc2)CC1 | 13.9 |
| Cc1ccc(C(=O)NCCNC(=O)c2ccccc2)cc1 | 11.9 |
| CCOC(=O)c1cc(NC(=O)c2ccc(Cl)cc2)c(=O)n2c1oc1ccc(Cl)cc12 | 14.8 |
| CC1(c2nnc(-c3ccccc3)o2)CC(c2cccc(Cl)c2)=NO1 (stereo not shown) | 12.3 |
| Cc1cccc(NC(=O)CSc2nnc(-c3ccco3)c(-c3ccco3)n2)c1C | 3.37 |
| CCc1ccccc1N1C(=O)NC(=O)/C(=C\c2cc(C)n(C)c2C)C1=O | 3.08 |
| CCOC(=O)C1CCCN(C(=S)Nc2ccc(OC)cc2)C1 (stereo not shown) | 14.4 |
| Cn1c(=O)n(Cc2ccc(F)cc2)c(=O)c2c1nc1n2CCN1Cc1ccco1 | -5.84 |
| Cc1cnc(Sc2ncccc2[N+](=O)[O-])nc1 | 2.72 |
| CC(C)(C)OC(=O)[C@H](Cc1ccccc1)NC(=O)c1nc[nH]c1C(=O)N[C@@H](Cc1ccccc1)C(=O)OC(C)(C)C | 9.8 |
| c1ccc(-n2c(Cc3cccnc3)nc3cnccc32)cc1 | -18.3 |
| NS(=O)(=O)c1cccc(NC(=O)COC(=O)Cc2n[nH]c(=O)c3ccccc23)c1 | 5.55 |
| Cn1c(SCC(=O)NCC2CCCO2)nc2c(c1=O)SCC2 (stereo not shown) | 11 |
| O=C(CCNC(=O)Cn1ccc2ccccc2c1=O)NCCc1ccccc1Cl | 2.53 |
| COC(=O)c1cccc(NC(=S)N2CCOCC2)c1 | 26.8 |
| C[C@H](NC(=O)[C@@H]1CSC2c3ccccc3C(=O)N21)C(=O)NC1CCCCC1 (stereo partly shown) | 4.82 |

| SMILES | hERG current change (%, negative = inhibition) at 1uM [%] |
| --- | --- |
| COc1cc(CN2CCN(C3CCC3)CC2CCO)cc(OC)c1 (stereo not shown) | 9.74 |
| O=C(CCC(=O)OCCCC(F)(F)C(F)(F)F)NC1CCCCC1 | 15.3 |
| O=C(O)C(c1ccccc1)N1C(=O)/C(=C\c2ccc(-c3cccc(Cl)c3)o2)SC1=S (stereo not shown) | 5.63 |
| CCCN(CCC)c1ccc(/C=N/NC(=O)CN2CCOCC2)cc1 | -6.07 |
| Cc1ccccc1NC1C=CS(=O)(=O)C1 (stereo not shown) | 14.8 |
| C=CCC1(/C=N/O)CCOC(C)(C)C1 (stereo not shown) | 15.5 |
| COc1ccc(C2NC(=O)C(C#N)=C(S)N2c2cccc(C)c2)cc1OC (stereo not shown) | 17.2 |
| CN(C)S(=O)(=O)c1ccc(NC(=O)CCCNC(=O)c2ccc(Cl)cc2)cc1 | 7.96 |
| COCCNC(=O)C1(C)Oc2ccccc2NC1=O (stereo not shown) | 11.7 |
| CCCN(CC(=O)Nc1ccccc1C)C(=O)c1nn(CC)c(=O)c2ccccc12 | -1.4 |
| Cc1ccccc1NC(=O)C(=O)c1cn(C)c2ccccc12 | 9.02 |
| CCO[C@H]1OC(C(=O)N2CCN(C)CC2)=C[C@@H](c2ccc(Br)cc2)[C@@H]1CCCO | -8.05 |
| CC1(C)CC(=O)C(C2C3=C(CC(C)(C)CC3=O)Oc3ccc4ccccc4c32)C(=O)C1 (stereo not shown) | 7.73 |
| Cc1c(C(=O)NCc2c(F)cc(F)cc2F)oc2ccc(S(=O)(=O)N3CCOCC3)cc12 | 16.8 |
| COc1cc(CCC(=O)Nc2ccc(S(=O)(=O)N3CCCC3)cc2)cc(OC)c1OC | 1.12 |
| COc1cc(OC)cc(C(=O)NC(C(=O)NNC(=O)c2ccc(C)cc2)C(C)C)c1 (stereo not shown) | 8.48 |
| CCOc1cc(/C=N/NC(=O)c2ccccn2)ccc1OC(=O)c1ccc(F)cc1 | -9.02 |
| Cc1ccccc1-c1n[nH]c(=S)o1 | 13.8 |
| Cn1c(=O)n(Cc2ccc(Cl)cc2)c2ccccc21 | 9.29 |
| O=C(CSc1nnc(NC(=O)c2ccccc2F)s1)NCc1ccc(F)cc1 | 9.09 |
| C(=N\n1c2ccccc2c2ccccc21)/c1ccccc1 | 9.08 |
| CCC(C)n1c(SCC(=O)NC2CCCC2)nc2ccccc2c1=O (stereo not shown) | 8.73 |

| SMILES | hERG current change (%, negative = inhibition) at 1uM [%] |
| --- | --- |
| O=C(c1cc(-c2ccccc2)nn1CC1CC(c2cccnc2)=NO1)N1CCOCC1 (stereo not shown) | 12.2 |
| CC(C)C[C@H](NC(=O)N1CCN(c2ccccc2)CC1)C(=O)O | 7.7 |
| NS(=O)(=O)c1cccc(NC(=S)NCc2ccc3c(c2)OCO3)c1 | 7.74 |
| CCC(=O)N1c2ccc(S(=O)(=O)NCCc3ccccc3)cc2CC1C (stereo not shown) | 13.6 |
| O=C(CCn1cccc1)Nc1ccccc1F | 14.3 |
| CCCCNC(=O)CSc1nnc(-c2ccc(S(=O)(=O)N3CCCC3)cc2)n1C | 4.16 |
| O=C(Nc1cccc(Cl)c1N1CCOCC1)c1cc([N+](=O)[O-])ccc1N1CCOCC1 | 12.8 |
| CC(C)(C)NC(=O)C(OC(=O)c1cccs1)c1ccc(F)cc1 (stereo not shown) | 11.6 |
| COc1ccc(COC(=O)Nc2c(SC)nsc2SC)cc1 | 10.7 |
| O=C1CSc2ccc(S(=O)(=O)N3CCN(c4ccccc4F)CC3)cc2N1 | 7.79 |
| CC(C)N1CCC(=NNc2ccc(S(=O)(=O)N3CCOCC3)cc2[N+](=O)[O-])CC1 | 1.63 |
| CCc1nnc(NC(=O)CCC(=O)Nc2ccccc2)s1 | 17.2 |
| O=C(Cc1ccc(NC2=NC3CS(=O)(=O)CC3S2)cc1)Nc1ccc(F)cc1 (stereo not shown) | 2.4 |
| c1ccc(-c2ccccc2OCCn2cncn2)cc1 | 5.88 |
| Cc1cc(C(F)(F)F)nn1Cc1n[nH]c(=S)n1-c1cccc(Cl)c1 | 0.656 |
| CSCC[C@H](NC(=O)COc1cc2c(c3oc(=O)c(C)c(C)c13)CCC(C)(C)O2)C(=O)O | 10 |
| O=C(c1ccc(COc2c(F)c(F)cc(F)c2F)o1)N1CCN(c2ccccc2)CC1 | 1.5 |
| O=C(O)c1[nH]nc2c1COc1ccccc1-2 | 9.01 |
| CCOc1ccc2ccccc2c1/C=N\NC(=O)OC | 15.1 |
| COc1cc(-c2nc3ccccn3c2/N=C/c2ccccc2)ccc1O | 8.07 |
| COc1cc(NS(=O)(=O)c2ccc(NC(=O)/C(=C\c3ccccc3OC)NC(=O)c3ccccc3)cc2)nc(OC)n1 | 20.8 |
| N[C@@H](Cc1ccccc1)C(=O)N1CCC(C(=O)N[C@@H](Cc2c[nH]c3ccccc23)C(=O)O)CC1 | 15.3 |

| SMILES | hERG current change (%, negative = inhibition) at 1uM [%] |
| --- | --- |
| Cc1ccc(Nc2nc(N)c([N+](=O)[O-])c(NCCO)n2)cc1 | 16.5 |
| COC(=O)C1CCN(C(=O)NC2CC(=O)N(c3ccc4c(c3)OCCO4)C2)CC1 (stereo not shown) | -5.3 |
| Nc1nc(SCc2ccc3c(c2)OCCO3)n[nH]1 | 17.7 |
| CC12CN3CC(C)(CN(C1)C3c1ccccc1)C2O (stereo not shown) | 9.98 |
| O=C(CSc1nc2ccccc2s1)N1c2ccccc2Sc2ccccc21 | 5.24 |
| COC(=O)Cn1c(SCc2ccccc2)nc2ccccc21 | -1.05 |
| CC(C)C(=O)Nc1cccc(NC(=O)c2ccc(Cl)cc2Cl)c1 | 3.68 |
| O=C1CSc2ccc(C(=O)NCC(c3ccco3)N3CCCCC3)cc2N1 (stereo not shown) | 6.34 |
| Cc1ccc(C(=O)N/N=C/C=C/c2ccccc2)o1 | -2.97 |
| S=C(Nc1ccc2nc(-c3ccccn3)c(-c3ccccn3)nc2c1)N1CCCCCC1 | -7.55 |
| COC(=O)c1sccc1NC(=O)Nc1cccc(OC)c1 | 14.8 |
| Cn1c(-c2ccc(Cl)cc2)cnc1NCc1cc2c(cc1[N+](=O)[O-])OCO2.O=C(O)C(=O)O | -23 |
| Cc1ccc(NC(=O)c2ccc3c(SCC(=O)O)c4c(nc3c2)CCCC4)c(Br)c1 | -8.14 |
| O=c1oc2ccccc2cc1NCc1ccccc1O | 8 |
| O=C(NNc1cc(Cl)ccc1Cl)C1CCC1 | 1.17 |
| CC(C)c1ccc(C(=O)OC2CCOC2=O)cc1 (stereo not shown) | 9.64 |
| CCOc1cc(CNc2ccc(S(N)(=O)=O)cc2)cc(Cl)c1OC | -0.769 |
| COc1cccc(Cn2nnc3c(=O)[nH]c(C4CCCN(C(=O)c5ccccc5Cl)C4)nc32)c1 (stereo not shown) | 9.45 |
| O=C(CSc1ccccc1)N/N=C/c1ccccc1O | 8.42 |
| CCN(CC)S(=O)(=O)c1cc(C)ccc1SC | 23.5 |
| COc1ccccc1NC(=O)Nc1ccccc1Br | 11.1 |
| CC(=O)N1CCN(c2ccccc2NC(=O)COc2ccc(Cl)cc2Cl)CC1 | -0.105 |
